In the supplement of paper PMC3334620:
Whole data set: some 33,000 sequences, median “E-score (-0.5 to 0.5)” near -0.035, cut for the highest 2% near 0.34. The list shows a part of the results.

target: T1, Mot3 (UniProt P54785); experiment: PBM E-score (8-mer binding enrichment) (E-score (-0.5 to 0.5)); higher = stronger / more preferred TF binding; most listed sequences are background and not binding sites; settings: protein concentration: 200 nM; construct: GST-full length
T1 sequence: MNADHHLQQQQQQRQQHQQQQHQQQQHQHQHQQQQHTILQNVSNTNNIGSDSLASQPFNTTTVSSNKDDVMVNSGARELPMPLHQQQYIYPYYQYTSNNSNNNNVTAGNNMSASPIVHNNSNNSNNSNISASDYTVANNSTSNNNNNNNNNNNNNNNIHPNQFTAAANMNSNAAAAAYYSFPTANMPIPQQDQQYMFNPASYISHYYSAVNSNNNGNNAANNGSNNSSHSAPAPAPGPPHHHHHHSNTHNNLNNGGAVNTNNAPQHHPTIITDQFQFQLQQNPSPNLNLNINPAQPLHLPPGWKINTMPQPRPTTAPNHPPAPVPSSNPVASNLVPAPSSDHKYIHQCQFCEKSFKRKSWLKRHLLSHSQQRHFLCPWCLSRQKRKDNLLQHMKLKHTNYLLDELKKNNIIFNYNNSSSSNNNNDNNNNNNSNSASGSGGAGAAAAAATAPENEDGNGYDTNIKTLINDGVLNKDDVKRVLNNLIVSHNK
Method in brief: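 For each ungapped eight-base word taken together with its reverse complement, the Universal PBM Analysis Suite assigned an E-score. Binding data came from GST-tagged yeast transcription factors, applied at about 100-200 nM, on universal all-10-mer Agilent arrays made double-stranded by primer extension. Fluorescent anti-GST marked bound protein, and scans were normalised with masliner.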

Sequence | PBM E-score
AACTGTGG | 0.0771
CCAATTCC | -0.0021
ATTATCGC | -0.106
AGGCAGGC | 0.317
ATGGACAA | 0.0217
AGGGTATG | -0.0136
AATCAAAT | 0.0575
ATTTAACA | 0.354
AGAAAGGA | -0.0478
ACCAGAAC | -0.0583
ATACTCAT | 0.0941
CGCGTCAG | -0.0638
GAGAGGAA | -0.0987
ATATCACG | -0.0148
CGCATAAA | 0.0277
CCTGATTC | -0.0437
ATTAAGAC | 0.0551
TGTACACA | 0.34
ACCCCGGA | -0.0203
GCACTCAA | 0.0611
CCCCGGGG | -0.37
GAAGCACA | -0.0308
CAATCCCG | -0.0236
ATACCGTG | 0.0953
ATTTCTAC | 0.189

Sequence | PBM E-score
ACTACTTG | 0.0769
AACTTAAC | 0.19
GCACGTGA | 0.152
CATTCAGA | -0.135
ATCCGCTA | -0.188
GCGTGTCC | 0.0864
ACACATGT | 0.256
CATTAACG | 0.189
AAGAATCA | -0.0387
ACCTGGGC | -0.268
GGTTGAAC | -0.0209
ACATAGAC | 0.112
ACACATCC | 0.183
GACTGCAA | -0.149
CGCCCCGC | -0.114
GGTGTTGA | 0.0387
AAGGCAAT | 0.479
ATAGCCTG | 0.133
AAGCCCAG | -0.183
AACGTACT | 0.142
TCCAATAA | 0.0678
AGCACCGA | -0.168
ATACTGGA | -0.15
AAAAGGCA | 0.478
AAAGTGCT | -0.175

Sequence | PBM E-score
CTGACAAA | 0.162
CAACCACA | -0.0496
AAAGGATT | 0.0704
CGTCCCGC | -0.207
AACGTTCG | -0.0896
ACTCGTGA | -0.0793
ATGTGAGC | 0.0368
TCAGGTCA | -0.159
AAGCTTTG | -0.0872
AAGATAGC | -0.0616
GCATAAAA | 0.115
AAGCACCT | 0.0273
CCGGGTGA | -0.25
AAGTGCGT | -0.0268
CTCGGCAG | -0.0936
ATATTGGC | -0.0257
CACCTGCG | 0.0771
AACAGAAT | 0.0192
ACGGAGCG | -0.0608
GTATTCAA | 0.151
AACTTCCG | -0.091
ATCCGCTG | -0.201
ACCGTCCC | -0.187
CTTCTAGA | -0.181
GAAAGAGA | 0.00602

Sequence | PBM E-score
ATGCAGTA | 0.101
ACTTTAAT | 0.0262
ACTGAGAG | -0.0806
AGCGATTG | -0.223
TGCCAGAA | -0.0627
GAGAAGAA | -0.083
GTGGCATA | -0.119
GGGTCTGA | -0.212
CCTACATA | 0.205
AGTCGAAA | -0.015
AGGTTCTG | 0.0713
TACTTGCA | 0.0506
ACGGTACG | -0.0434
ACTTCTAA | -0.121
GCCCGTCC | -0.182
CTAAATCA | -0.0576
AGAAATAG | 0.082
CATTTTGG | 0.0099
GATACACA | 0.14
CTCTCCGA | -0.0638
ACACTGCT | -0.0116
GTACCCGA | -0.143
GGAACTCC | 0.052
ACTGGACT | -0.176
CACCTCGG | -0.108

Sequence | PBM E-score
TACATGAA | 0.375
CACAGACG | -0.0437
GTCCTGTA | 0.155
GACATAAA | 0.165
GTATCCTA | 0.0863
AGGACATA | 0.0303
GACAGTCA | -0.104
TAGTTTCA | 0.025
GTAAATAA | 0.277
ATATGCCG | -0.0771
AGTAGCTC | -0.0996
CGTGACTC | -0.136
GATATCCA | -0.0173
ATCAAAAA | 0.0159
CCCTCCAC | -0.13
CAGCAGGG | -0.0212
CGTCACAC | -0.139
TTCTAGAA | -0.0416
ACAACTGG | -0.229
ACGGGTCC | -0.177
ATTACCAG | -0.0076
ACATCTCA | 0.131
ACCGCGCG | -0.217
TATCCTGA | -0.0141
ATAAGACG | -0.0189

Sequence | PBM E-score
CAGACGGC | -0.224
GCACAGGC | 0.323
GACGTTGA | 0.0556
AGCAGGCG | 0.148
CGGGCCGC | -0.307
AACATTAG | 0.115
TACAAAAA | 0.196
AGGAACAT | 0.422
TATGAGAA | 0.0231
AGAAACTA | -0.0831
CTCAGCTA | -0.268
ACGCATGA | 0.074
TGAGCACA | 0.0359
CAATTCAC | 0.202
CCTCACGC | -0.00499
ACGTACCT | 0.292
CCCCGACA | -0.0337
AATTCCGT | 0.079
CTCACCAG | -0.228
ACCAAGTC | -0.121
TGCCGCAA | -0.114
CGGTGCAA | 0.00071
ACGCGAAC | 0.124
GCGACGCA | -0.151
TGTACTAA | 0.174

Sequence | PBM E-score
ACCATGGA | -0.11
GCGTGGAC | -0.207
CGTGTCTA | 0.258
CTCTGGGA | -0.236
AGTCCACC | -0.168
AGTGGGCA | 0.0468
AAGAAGAG | 0.0452
GTGGTCAA | -0.00981
GAAATACA | 0.328
CGAGATAC | 0.051
CAAGTAGC | 0.00372
ATAATTCG | 0.0134
CGTCCACG | -0.287
GATCAATA | -0.0835
CTAACTGA | -0.105
AGCTTTTA | 0.0476
CGGGCTAC | -0.201
GCTAGTCC | -0.342
AGCGACCT | -0.135
AATTCTCA | 0.0166
AAAGAAAG | 0.191
AGACGACC | -0.0112
